Experimental data reported in the GPR68 mutational scans of Howard et al. (2025).
The least precise scores are not listed. Not listed are two conditions whose scores span a narrow range. Names with del lack the residues named; names with ins carry added residues between the positions named. For part of these data: The data file names ogerin without a concentration.

B1: GPR68, Q15743 (parent)
chain: MGNITADNSSMSCTIDHTIHQTLAPVVYVTVLVVGFPANCLSLYFGYLQIKARNELGVYLCNLTVADLFYICSLPFWLQYVLQHDNWSHGDLSCQVCGILLYENIYISVGFLCCISVDRYLAVAHPFRFHQFRTLKAAVGVSVVIWAKELLTSIYFLMHEEVIEDENQHRVCFEHYPIQAWQRAINYYRFLVGFLFPICLLLASYQGILRAVRRSHGTQKSRKDQIQRLVLSTVVIFLACFLPYHVLLLVRSVWEASCDFAKGVFNAYHFSLLLTSFNCVADPVLYCFVSETTHRDLARLRGACLAFLTCSRTGRAREAYPLGAPEASGKSGAQGEEPELLTKLHPAFQTPNSPGSGGFPTGRLA

Experiments:
[1] = variants of: B1; assay: cAMP reporter score (Enrich2 score, wild type = 0); higher = more signal; HEK293T, FACS bins
[2] = variants of: B1; assay: surface expression score (Enrich2 score, wild type = 0); higher = more signal; HEK293T, FACS bins

Variant	cAMP reporter score ([1]; pH 5.5)	cAMP reporter score ([1]; pH 6)	cAMP reporter score ([1]; pH 6, modulator: ogerin)	cAMP reporter score ([1]; pH 6.5, modulator: ogerin)	surface expression score [2]
R295P	-0.456	-1	-0.291	-1.49	0.079
R295M	-0.214	-0.273	-0.619	-0.131	0.459
R295I	-0.175	-1.11	-0.396	-0.695	0.458
R295F	-0.081	-1.01	-0.567	-1.2	1.2
R295L	0.451	-1.19	-0.158	-0.535	0.748
R295K	-0.484	-0.259	-0.525	-0.359	0.269
R295V	-0.055		0.271	0.11	2.2
R295H	-0.447	-0.138	0.243	-0.516	0.619
R295S	-0.354	-0.422	-0.574	-0.585	-0.292
R295Q	0.335	-1.01	0.709	-0.646	2.12
R295D	0.629		0.685	-0.558	0.632
H294_D296del	0.242	-0.501	0.775	-1.03	-0.412
V284_L285insG	-1		-0.285	-0.246	
E291_T292del	-1.46	-2.04	-2.07	-1.38	-0.997
S290Y	-0.607		-1.05	-1.8	-0.563
S290I	-1.08	-0.809	-0.271	-0.32	-0.365
S290P	-0.038	-0.024	-0.34	-0.841	-0.369
S290E	-0.735	-0.921	-0.604	-1.45	0.097
S290W	-1.03		-0.272	-0.708	-0.9
S290L	-1.41		-0.697	-0.335	-0.611
S290N	-0.36	-2.35	-0.406	-1.2	-0.399
S290H	2.24	0.121	0.295	0.347	2.37

Variant	cAMP reporter score ([1]; pH 5.5)	cAMP reporter score ([1]; pH 6)	cAMP reporter score ([1]; pH 6, modulator: ogerin)	cAMP reporter score ([1]; pH 6.5, modulator: ogerin)	surface expression score [2]
S290G	-0.884	-0.928	-1.35	-1.38	-0.026
S290F	-0.713	-0.535	-1.03	-0.888	-0.572
S290V	0.184	-1.27		-0.83	-0.692
S290A	-0.042	-1.13		-0.319	-1.01
S290T	-0.547	-0.473	-0.369	-0.903	0.343
S290C	1.2	0.414	0.375	0.75	-0.432
S290K	-1.17	-0.57	-1.08	-1.23	-0.916
S290R	-0.731	-0.797	-0.709	-0.545	-1.33
S290Q	-0.881	-1.15	-1.49	-0.491	-0.712
S290D	-1.39	-0.132	-2.07	-1.21	0.599
S290M	-0.834		-2.15	-0.916	-1.83
L297I	-0.402	0.549	-0.141		-0.683
L297H	-1.08	-0.454	-1.86	-1.23	-0.309
L297K	-0.982	-1.06	-0.952	-1.23	-0.342
L297F	-0.233	-0.43	-0.194	-0.186	0.234
L297E	-0.697	-0.273	-1.12	-1.21	-1.21
L297D	-1.83	-1.12	-1.45	-1.5	-0.067
L297C	-0.028	-0.11	-0.33	-0.914	0.024
L297M	0.565		0.824	0.912	1.36
L297A	0.343	-0.477	0.399	0.095	0.206
L297G	1.01		0.607	-0.606	0.435
L285_Y286insGSG	-2.25	-1.7	-2.12	-1.35	-1.5

Variant	cAMP reporter score ([1]; pH 5.5)	cAMP reporter score ([1]; pH 6)	cAMP reporter score ([1]; pH 6, modulator: ogerin)	cAMP reporter score ([1]; pH 6.5, modulator: ogerin)	surface expression score [2]
Y286_C287insGSG	-1.44	-0.851	-1.55	-0.83	-1.55
E291A	0.53	0.924	0.739	-0.192	-0.33
E291R	2		-0.246	-0.518	-0.425
E291F	-0.923		-0.846	-1.39	-2.07
E291N	0.131	-0.951	-0.167	-0.544	0.145
E291L	0.26	0.277	-0.118	-0.806	-2.17
E291M	0.592	-0.476	-0.056	-0.62	-1.6
E291W	0.367	0.445	0.291	-0.604	-1.73
E291H	-0.284	-0.867	-0.366	-1.14	-0.591
E291Y	-0.732	-1.97	-1.04	0.458	-1.66
E291I	-0.036			-1.37	-2.24
E291G	-0.13	-0.097	-0.633	-0.784	-0.524
E291V	0.963		0.653	0.933	
E291P	-0.247		-0.451	0.183	0.223
E291T	-0.721	-1.29	-0.718	-1.32	-0.97
E291Q	1.07		0.488	1.63	0.121
E291K	-0.054		0.066	0.202	
E291C	1.42	0.439	1.1	-0.16	-0.359
E291D	0.425	-1.26	0.346	-0.249	0.927
E291S	-0.083	0.317	-0.272	0.188	-0.247
